The values below come from article PMC4336329 (PLoS ONE, 2015).

SMILES strings stand for the structures. The campaign covered roughly 310,000 compounds. About 2,200 (0.71%) showed an effect of 50% or more. Effects have a minus sign here. This is one part of the list.

This assay deals with human ether-à-go-go-related gene (hERG) potassium channel (human, UniProt Q12809). Briefly: primary screen, population patch clamp on CHO cells stably expressing hERG.
Sequence of human ether-à-go-go-related gene (hERG) potassium channel (Q12809 whole entry, looked up): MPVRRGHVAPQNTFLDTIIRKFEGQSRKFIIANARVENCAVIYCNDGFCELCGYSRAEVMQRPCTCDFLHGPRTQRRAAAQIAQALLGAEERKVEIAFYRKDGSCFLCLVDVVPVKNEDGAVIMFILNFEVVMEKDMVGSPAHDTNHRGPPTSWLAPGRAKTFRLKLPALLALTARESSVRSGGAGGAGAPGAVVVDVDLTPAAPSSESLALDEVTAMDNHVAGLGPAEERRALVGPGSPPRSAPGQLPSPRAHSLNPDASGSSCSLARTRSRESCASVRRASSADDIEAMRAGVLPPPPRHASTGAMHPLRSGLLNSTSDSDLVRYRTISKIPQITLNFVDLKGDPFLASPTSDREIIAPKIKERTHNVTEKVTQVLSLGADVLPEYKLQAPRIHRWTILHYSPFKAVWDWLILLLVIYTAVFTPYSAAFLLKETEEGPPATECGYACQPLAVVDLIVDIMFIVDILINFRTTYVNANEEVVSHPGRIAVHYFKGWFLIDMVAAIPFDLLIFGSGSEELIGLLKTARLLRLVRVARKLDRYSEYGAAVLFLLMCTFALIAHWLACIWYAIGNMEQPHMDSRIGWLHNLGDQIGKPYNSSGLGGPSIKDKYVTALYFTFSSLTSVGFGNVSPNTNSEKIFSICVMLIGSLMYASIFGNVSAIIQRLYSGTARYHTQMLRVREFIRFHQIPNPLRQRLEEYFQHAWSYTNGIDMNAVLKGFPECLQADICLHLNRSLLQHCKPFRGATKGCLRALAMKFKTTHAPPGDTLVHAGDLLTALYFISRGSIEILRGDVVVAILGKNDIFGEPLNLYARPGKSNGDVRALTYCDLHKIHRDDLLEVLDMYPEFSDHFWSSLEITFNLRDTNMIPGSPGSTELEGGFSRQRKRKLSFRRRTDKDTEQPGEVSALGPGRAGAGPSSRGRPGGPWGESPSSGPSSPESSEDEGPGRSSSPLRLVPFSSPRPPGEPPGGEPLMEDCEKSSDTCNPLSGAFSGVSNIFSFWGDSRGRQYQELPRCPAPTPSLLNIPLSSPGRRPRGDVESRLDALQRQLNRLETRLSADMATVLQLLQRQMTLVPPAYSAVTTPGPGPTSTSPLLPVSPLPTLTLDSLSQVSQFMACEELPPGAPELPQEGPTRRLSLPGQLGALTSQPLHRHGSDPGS
Regarding `CC(C)(C)OC(=O)CC1(C#N)c2ccccc2C(Br)=CN1C(=O)c1ccccc1` (stereo not drawn), the “hERG current change (%, negative = inhibition) at 1uM” value turned out to be 4.29%.
As to `O=C(c1c(F)cccc1F)N(Cc1cccs1)C1CCCC1`, the “hERG current change (%, negative = inhibition) at 1uM” value was 11.5%.
With `NC1=NC(c2ccc([N+](=O)[O-])cc2)N(c2ccc(F)cc2)C(N)=N1` (stereo not drawn) the figure was 11.9%; with `CCOC(=O)COc1cc(=O)n(CC)c2ccccc12`, 3.81%.
For `c1ccc(-n2c(-c3ccncc3)nnc2-c2cccs2)cc1` the value was -3.73%; for `CCN1C(=O)N[C@@H](c2cccc(F)c2)C(C(=O)OC)=C1C`, 20.4%; for `COc1ccc(NC(=O)c2ccco2)cc1NC(=O)c1ccco1`, -13.5%.
With `CN1CCN(CCc2nc3cc(NC(=O)COc4ccc([N+](=O)[O-])cc4)ccc3n2C)CC1` the figure was 12%.
On to `O=[N+]([O-])c1cc(C(F)(F)F)ccc1NCCc1c[nH]c2ccccc12`, for which the “hERG current change (%, negative = inhibition) at 1uM” value was 4.69%.
For `CCOc1ccc(-n2cnc3c(=O)[nH]c(N)nc32)cc1` the value was -1.21%; for `COc1ccc(Cl)cc1N/C(N)=N/c1nc(C)cc(C)n1`, -79.1%; for `COc1cc(/C=N/Nc2ccc3ccccc3c2)ccc1OC(=O)c1ccco1`, 15.3%.
With `COc1ccc2nc(N/C(N)=N/C(=S)Nc3cccc(C)c3)nc(C)c2c1` the figure was 5.47%; with `COc1ccc(CN(C(=O)c2ccc3c(c2)OCCO3)C(C(=O)NC2CCCCC2)c2ccc3ncccc3c2)cc1` (stereo not drawn), 0.939%; with `COc1ccc(Cl)cc1NC(=O)CN(C)C(=O)Cc1ccc(-c2ccccc2)cc1`, 9.48%.
In the case of `Cc1nn2c([nH]c(=O)c3ccccc32)c1C=O`, the “hERG current change (%, negative = inhibition) at 1uM” value is recorded as -8.39%.
For `Cc1cc(=O)n2c3ccccc3n(CC(O)CN3CCOCC3)c2c1C#N` (stereo not drawn) the value was 9.67%.
`Cc1cccnc1NC(=O)Cn1c(=O)oc2ccccc21`: the “hERG current change (%, negative = inhibition) at 1uM” value amounted to 16.9%.
Take `CCOC(=O)N1CCN(S(=O)(=O)c2c(C)nc3scc(C)n3c2=O)CC1`: the “hERG current change (%, negative = inhibition) at 1uM” value came out at 12.3%.
For `Cc1cc(C(=O)Nc2cccc([N+](=O)[O-])c2C)cs1` the value was 12.6%; for `CC1CCC(C(C)C)C(OC(=O)CSc2n[nH]c(=O)[nH]c2=O)C1` (stereo not drawn), -1.05%.
For `O=C(CN(Cc1cccs1)C(=O)CNC(=O)c1ccco1)NC1CCCCC1` the value was 4.97%; for `O=C(NCc1cccnc1)c1noc2c1CCCCC2`, 13.2%.
As to `COc1ccc(/C=C(/C#N)S(=O)(=O)c2ccc(C)cc2)cc1`, the “hERG current change (%, negative = inhibition) at 1uM” value worked out at 11.8%.
As for `COc1ccc(-n2c(C)cc(C(=O)Cn3c(NCCO)nc4ccccc43)c2C)cc1`, the “hERG current change (%, negative = inhibition) at 1uM” value is recorded as 7.65%.
Take `Cc1nc(Nc2ccccc2)sc1C`: the “hERG current change (%, negative = inhibition) at 1uM” value was 5.24%.
For `O=C(NCc1ccccc1)C1=C[C@@H](c2ccc3c(c2)OCO3)C[C@@H](OCCCCO)O1` the value was 7.83%.
For `O=C(O)CSc1nnc(-c2ccco2)o1` the value was 9.83%; for `COC(=O)c1ccc(/C=N/NC(=S)NC(C)C)cc1`, 9.96%; for `COc1ccc(S(=O)(=O)N2CCC(C(=O)NCc3ccco3)CC2)cc1C`, 9.74%.
For `CC(C)NC(=S)N/N=C/C1=CCC2CC1C2(C)C` (stereo not drawn) the value was 16.9%; for `O=C(CCC(=O)c1cccs1)OCC(=O)c1ccc(Cl)s1`, 14.8%.
Regarding `COc1ccc(C(=O)OCC(=O)Nc2ccc(N3CCOCC3)cc2)cc1OC`, the “hERG current change (%, negative = inhibition) at 1uM” value is 6.6%.
With `O=C(NCC1CCCO1)c1ccc(Cl)c(F)c1F` (stereo not drawn) the figure was 13%; with `COc1ccc(-c2cn(Cc3ccc(C)cc3)nn2)cc1`, 11.3%; with `Cc1ccc(C(=O)Nc2ncc3c(n2)CC(c2ccco2)CC3=O)cc1` (stereo not drawn), 15.5%.
With `CCCC[n+]1c(-c2ccc(Cl)cc2Cl)csc1Nc1ccccc1.[Cl-]` the figure was -2.84%.
With `O=C(COC(=O)Cc1ccccc1)Nc1ncc(Cl)cc1Cl` the figure was 10.7%; with `NC(=O)Cn1c(=O)n(CCC(=O)NCCSCc2ccccc2)c(=O)c2ccccc21`, 11.5%.
In the case of `CC(C)NC(=O)COCc1cc(-c2ccc3c(c2)OCO3)on1`, the “hERG current change (%, negative = inhibition) at 1uM” value was 9.13%.
For `COc1cc(S(=O)(=O)N2CCC(c3nc4ccccc4s3)CC2)ccc1S(=O)(=O)NC1CCCC1` the value was 8.39%; for `O=C1CCSc2ccc(Cl)cc2N1Cc1cccc(Cl)c1`, -1.06%.
With `Cc1c(C(=O)C(=O)NCCc2ccc(S(N)(=O)=O)cc2)c2ccccc2n1C` the figure was 4.26%; with `COc1ccc(-c2csc(CCn3nc(C)cc3C)n2)cc1`, 16.7%; with `CCCCc1ccc(NC(=O)CSc2nc3ncccc3[nH]2)cc1`, 15.3%.
For `Cc1cc(-c2n[nH]c(=S)n2Cc2ccco2)nn1C` the value was 15.3%.
Take `CCOC(=O)C(C)c1nn(C)c(=O)c2ccccc12` (stereo not drawn): the “hERG current change (%, negative = inhibition) at 1uM” value is recorded as 9.97%.
For `CSCC[C@H](NC(=O)[C@H](Cc1ccccc1)n1c(=O)[nH]c2ccccc2c1=O)C(=O)NCC1CCC(C(=O)O)CC1` (stereo partly drawn) the value was 9.22%; for `CN1C(=O)c2c(sc3c2CCCC3)NC1c1ccccc1O` (stereo not drawn), 8.04%.
With `O=C(OC1CCc2ccccc2C1=O)c1ccccc1O` (stereo not drawn) the figure was 6.37%; with `O=C(O)[C@H]1CCCN1S(=O)(=O)c1cccc2cccnc12`, 4.65%.
For `COc1ccc(-c2cc(-c3cccs3)c(C#N)c(SCC(=O)NCc3ccccc3OC)n2)cc1` the value was -3.19%; for `Cc1cccc(NC(=O)NC(=S)NC(=O)c2ccccc2)c1`, -0.187%; for `Cc1ncc2c(c1OC(=O)c1ccccc1)COC(C)(C)OC2`, 12.8%.
With `O=C(CSc1nnc(NC2CC2)s1)Nc1ccc(N2CCOCC2)cc1`, the “hERG current change (%, negative = inhibition) at 1uM” value is 2.17%.
With `COc1cccc(NS(=O)(=O)c2ccc3c(c2)C2C=CCC2C(c2ccc(C(=O)O)cc2)N3)c1` (stereo not drawn) the figure was 6.39%.
For `COc1ccc(NC(=O)CCn2c(=S)[nH]c3ccccc3c2=O)cc1` the value was 15.3%; for `O=C(O)c1cc(S(=O)(=O)O)cc(Nc2c3ccccc3nc3ccccc23)c1O`, 12.9%.
Turning to `NC(=O)c1nn2c(C(F)(F)F)cc(-c3ccccc3)nc2c1Br`, the “hERG current change (%, negative = inhibition) at 1uM” value worked out at 4.78%.
Regarding `O=S(=O)(c1ccc(Br)s1)N1CCN(c2ccc(F)cc2)CC1`, the “hERG current change (%, negative = inhibition) at 1uM” value is recorded as 18.2%.
In the case of `CCN(Cc1cccs1)C(=O)CN1C(=O)NC2(CCCc3ccccc32)C1=O` (stereo not drawn), the “hERG current change (%, negative = inhibition) at 1uM” value worked out at 1.39%.
With `c1ccc(-c2nnc(-c3ccccn3)nc2NC2CCCCC2)cc1` the figure was 0.903%; with `O=C(NC(=S)Nc1ccccc1N1CCN(C(=O)c2ccccc2)CC1)c1ccccc1F`, 9.11%.
For `O=C(CN1C(=O)c2ccc([N+](=O)[O-])cc2C1=O)NCc1ccc(C(=O)O)cc1`, the “hERG current change (%, negative = inhibition) at 1uM” value is 5.75%.
For the compound `Cc1ccnc2nc(C(=O)OCC(=O)N3CCc4ccccc43)nn12`, the “hERG current change (%, negative = inhibition) at 1uM” value is given as 16.4%.
For `Cc1cc(-c2ccccc2C(=O)NC2CCCCC2)on1` the value was 8.43%; for `CC(C)CCN1C(=O)c2ccc(C(=O)NCc3ccccn3)cc2C1=O`, -34.6%.
On to `Cc1cc(C)cc(C(=O)Nc2ccc3[nH]c(=O)[nH]c3c2)c1`, for which the “hERG current change (%, negative = inhibition) at 1uM” value was found to be 14.9%.
For `CC(Sc1ccc2c(c1)OCCO2)C(=O)Nc1ccc(N2CCOCC2)cc1` (stereo not drawn) the value was 6.44%; for `COc1ccc(-c2nnn(CC(=O)N(CCO)C(C(=O)NC3CCCC3)c3ccncc3)n2)cc1` (stereo not drawn), 13.6%.
Regarding `CC(NC(=O)CSc1n[nH]c(N)n1)c1ccccc1` (stereo not drawn), the “hERG current change (%, negative = inhibition) at 1uM” value turned out to be 7.03%.
With `Cc1cc(C)c(NC(=O)OCCN2CCOCC2)c(C)c1` the figure was 0.695%; with `Cc1ccc(-c2nc(CS(=O)(=O)CC(=O)N3CC(C)CC(C)C3)c(C)o2)cc1` (stereo not drawn), 5.88%; with `CN(C)C(=O)OCC1COc2ccccc2O1` (stereo not drawn), 13.1%.
With `CON(C)C(=O)Nc1ccc(Cl)cc1` the figure was 16.7%.
`O=S1(=O)CCN(Cc2ccc(Cl)c(Cl)c2)CC1`: the “hERG current change (%, negative = inhibition) at 1uM” value worked out at 13.8%.
For the compound `CCN(CC)Cc1c(O)ccc2c1O/C(=C\C=C\c1ccccc1)C2=O`, the “hERG current change (%, negative = inhibition) at 1uM” value is 10.1%.
With `O=S(=O)(NCc1c(Cl)cccc1Oc1ccccc1)c1ccccc1` the figure was 13.3%; with `Cc1ccnc(N2CCC(C(=O)NCc3ccc4c(c3)OCO4)CC2)n1`, -9.7%; with `O=C(NNc1ccc([N+](=O)[O-])cc1)C1C2CCCCC21` (stereo not drawn), 7.22%.
For `CCCc1nn2c(=O)c(C(c3cccc(Cl)c3)c3c(O)nc4sc(CCC)nn4c3=O)c(O)nc2s1` the value was 20.7%; for `CCn1c2ccc(C)cc2c2nc3cc(C(=O)O)ccc3nc21`, -2.82%; for `CCN1C(=O)c2ccc(C(=O)Nc3c(C)cc(C)cc3C)cc2C1=O`, 17.9%.
With `COc1cccc(NC(=S)NCc2cccnc2)c1` the figure was 11.1%.
Take `Cc1cccc(CSc2ccc(-c3ccco3)nn2)c1`: the “hERG current change (%, negative = inhibition) at 1uM” value is -1.15%.
With `O=C(COC(=O)c1cc([N+](=O)[O-])ccc1NCCO)NCc1cccs1` the figure was 9.23%; with `CCOC(=O)c1ccc(P(=O)(c2ccccc2)c2ccccc2)cc1`, 2.35%.
In the case of `COc1ccc(-c2[nH]ncc2CN2CCN(C(=O)c3ccco3)CC2)cc1F`, the “hERG current change (%, negative = inhibition) at 1uM” value is on record as 17.4%.
With `COc1cccc(CNc2ncn[nH]2)c1OCc1ccc(F)cc1` the figure was 10.2%.
Regarding `COc1ccc(C2(CNC(=O)c3cc([N+](=O)[O-])cc([N+](=O)[O-])c3)CCCC2)cc1OC`, the “hERG current change (%, negative = inhibition) at 1uM” value is 2.19%.
